Laboratory results taken from patent publication US20250382361A1 (UNIVERSITY OF OREGON, published 2025).

Legend:
[1] = biological target: T1, Recombinant VEGF165 (vascular endothelial growth factor) (UniProt P15692-4 27-191, biotinylated (bVEGF) in flow cytometry and BLI); experiment: biolayer interferometry, 25 nM bVEGF on streptavidin probes, soluble affibody 15.625-125 nM
T1 construct: also called VEGF-A (165); bVEGF
T1 sequence (looked up): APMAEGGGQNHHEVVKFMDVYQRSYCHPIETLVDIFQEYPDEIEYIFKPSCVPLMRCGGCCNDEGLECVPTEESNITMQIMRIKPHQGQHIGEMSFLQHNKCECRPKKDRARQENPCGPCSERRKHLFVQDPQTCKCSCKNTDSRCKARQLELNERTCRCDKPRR

[2] = biological target: T2, Granulocyte-macrophage colony-stimulating factor (GM-CSF), biotinylated (UniProt P04141 18-144, biotinylated (bGM-CSF)); experiment: biolayer interferometry, 25 nM bGM-CSF on streptavidin probes, soluble affibody 15.625-125 nM
T2 construct: also called bGM-CSF
T2 sequence (P04141 18-144 limits assumed): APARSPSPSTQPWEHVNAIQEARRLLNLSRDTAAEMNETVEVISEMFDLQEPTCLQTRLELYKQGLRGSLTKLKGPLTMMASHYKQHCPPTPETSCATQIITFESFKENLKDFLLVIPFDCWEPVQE

[3] = biological target: T3, Recombinant human BMP-2 (bone morphogenetic protein 2) (human, UniProt P12643 283-396, biotinylated with Sulfo-NHS-Biotin (bBMP-2) in flow cytometry and BLI); experiment: yeast surface display, flow cytometry, bBMP-2 0.5-1000 nM, nonlinear regression
T3 construct: Bought protein; also called bBMP-2; bBMP
T3 sequence (looked up): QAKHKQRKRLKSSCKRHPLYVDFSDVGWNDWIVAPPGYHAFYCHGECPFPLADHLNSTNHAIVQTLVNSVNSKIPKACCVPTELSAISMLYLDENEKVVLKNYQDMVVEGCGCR

[4] = biological target: T1, Recombinant VEGF165 (vascular …); experiment: flow cytometry, yeast-displayed affibody with 1000 nM biotinylated target
[5] = biological target: T2, Granulocyte-macrophage …; experiment: as above
[6] = biological target: T1, Recombinant VEGF165 (vascular …); experiment: yeast surface display, flow cytometry, bVEGF165 0.02-10 µM
[7] = biological target: T4, Recombinant FGF-2 (fibroblast growth factor 2) (UniProt P09038 143-288, limits assumed, biotinylated (bFGF-2) in flow cytometry and BLI); experiment: flow cytometry, yeast-displayed affibody with biotinylated target
T4 construct: also called bFGF-2; biotinylated FGF-2
T4 sequence (P09038 143-288 limits assumed): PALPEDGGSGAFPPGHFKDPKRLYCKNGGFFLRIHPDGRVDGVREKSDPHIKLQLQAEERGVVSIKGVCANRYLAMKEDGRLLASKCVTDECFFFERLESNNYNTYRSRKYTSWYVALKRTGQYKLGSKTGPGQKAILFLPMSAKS

[8] = biological target: T5, Recombinant human PDGF-BB (platelet-derived growth factor) (human, UniProt P01127 82-190, biotinylated (bPDGF) in flow cytometry and off-target BLI; not biotinylated in the Ni-NTA BLI); experiment: as above
T5 construct: also called rhPDGF-BB; bPDGF
T5 sequence (P01127 82-190): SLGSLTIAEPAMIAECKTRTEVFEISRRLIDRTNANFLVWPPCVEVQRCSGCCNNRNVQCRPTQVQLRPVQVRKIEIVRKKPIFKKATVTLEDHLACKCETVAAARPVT

[9] = biological target: T1, Recombinant VEGF165 (vascular …); experiment: method not stated (yeast surface display or BLI per paragraph 316); method not stated (yeast display or BLI per paragraph 316); yeast display with bVEGF165 in paragraph 322 gives 861±255 nM
[10] = biological target: T5, Recombinant human PDGF-BB …; experiment: yeast surface display, flow cytometry, bPDGF-BB 0.016-8.4 µM
[11] = biological target: T5, Recombinant human PDGF-BB …; experiment: BLI
[12] = biological target: T5, Recombinant human PDGF-BB …; experiment: BLI, affibody on Ni-NTA probes, soluble PDGF (method not stated in Table 1)
[13] = biological target: T5, Recombinant human PDGF-BB …; experiment: BLI, 200 nM His-tagged affibody on Ni-NTA probes, PDGF 1.563-50 nM, global fit
[14] = biological target: T1, Recombinant VEGF165 (vascular …); experiment: biolayer interferometry, 25 nM bVEGF on streptavidin probes, 1000 nM soluble affibody
[15] = biological target: T1, Recombinant VEGF165 (vascular …); experiment: yeast surface display, flow cytometry with bVEGF
[16] = biological target: T1, Recombinant VEGF165 (vascular …); experiment: ratio of KD values; method not given
[17] = biological target: T1, Recombinant VEGF165 (vascular …); experiment: biolayer interferometry, 25 nM bVEGF on streptavidin probes, soluble affibody 15.625-125 nM; remark: listed apart in the source
[18] = biological target: T2, Granulocyte-macrophage …; experiment: biolayer interferometry, 25 nM bGM-CSF on streptavidin probes, soluble affibody 15.625-125 nM; remark: listed apart in the source
[19] = biological target: T1, Recombinant VEGF165 (vascular …); experiment: BLI, 25 nM bVEGF on streptavidin probes, soluble affibody 31.25-1000 nM, global fit
[20] = biological target: T5, Recombinant human PDGF-BB …; experiment: biolayer interferometry; 25 nM bPDGF on streptavidin probes, 1000 nM soluble affibody as analyte
[21] = biological target: T1, Recombinant VEGF165 (vascular …); experiment: method not stated in Table 1 (yeast surface display or BLI per paragraph 316); Table 1 value; method not stated (yeast surface display or BLI)

B1: High Affinity BMP-2 Affibody, soluble, with hexahistidine tag and C-terminal cysteine (SEQ ID NO: 71) (designed binder)
chain: AEAKYYKEVSSAATQIRYLPNLTAFQKAAFYAALLDDPSQSSELLSEAKKLNDSQAPKHHHHHHC
notes: E. coli-expressed; also called A1-2
What does the source list for B1?
binding result [1]: no binding (tested: 125 nM); binding result [2]: no binding (tested: 125 nM)

B2: High Affinity BMP-2 affibody A1-2 (SEQ ID NO: 1), yeast-displayed (designed binder)
chain: AEAKYYKEVSSAATQIRYLPNLTAFQKAAFYAALLDDPSQSSELLSEAKKLNDSQAPK
B2 was tested. Which Kd [3] did it give?
Its Kd is 1.95 nM.

Does B2 bind [4]?
Result: no binding (tested: 1000 nM)

Does B2 bind [5]?
Result: no binding (tested: 1000 nM)

B3: VEGF affibody BR2 (Low Affinity) (SEQ ID NO: 22), yeast-displayed (designed binder)
chain: AEAKYNKEWYDAVFVIGSLPNLTEDQKDAFSDALVDDPSQSSELLSEAKKLNDSQAPK
notes: also called original VEGF affibody; VEGF-specific affibody
B3 was tested. Which Kd [6] did it give?
Its Kd is 861 nM.

Does B3 bind [7]?
Result: no binding

Does B3 bind [8]?
Result: no binding

And the Kd [9]?
The Kd was 6470 nM.

B4: PDGF affibody BM_6 (Medium) (SEQ ID NO: 60), yeast-displayed (designed binder)
chain: AEAKYAKELDDASVEIWDLPNLTPCQKVAFFVALYDDPSQSSELLSEAKKLNDSQAPK
notes: also called original PDGF affibody; PDGF-specific affibody
B4 was tested. Which Kd [10] did it give?
The Kd was 855 nM.

B5: PDGF Affibody-13 (SEQ ID NO: 59), soluble with hexahistidine tag and C-terminal cysteine (designed binder)
chain: AEAKYAFELWEAQHEIQQLPNLRPDQIAAFAMALYDDPSQSSELLSEAKKLNDSQAPKHHHHHHC
notes: soluble, expressed in E. coli; also called 0057; 0057/Affibody-13
For B5, which “fold higher equilibrium dissociation constant than PDGF Affibody-16” value [11] is on record?
The value was 10 fold.

What about the Kd [12] of the same binder?
Its Kd is 77.3 nM.

What about the Kd [13] of the same binder?
The Kd was 77.4 nM.

What about the koff [13] of the same binder?
The koff was 0.0182 s⁻¹.

And the kon [13]?
The kon was 237000 M⁻¹ s⁻¹.

Does B5 bind [14]?
Result: no binding (tested: 1000 nM)

B6: VEGF affibody TM2 (High Affinity) (SEQ ID NO: 20), yeast-displayed (designed binder)
chain: AEAKYYKEGATAYRVIEYLPNLTGAQKAAFIDALYNDPSQSSELLSEAKKLNDSQAPK
notes: also called VEGF High Affibody
How did the Kd [15] turn out when B6 was run?
The Kd was 58.3 nM.

And the “fold greater affinity than the low-affinity VEGF affibody (SEQ ID NO: 78)” value [16]?
The value was ~100 fold.

What about the “fold greater affinity than the medium-affinity VEGF affibody (SEQ ID NO: 21)” value [16] of the same binder?
The value was ~5 fold.

Does B6 bind [7]?
Result: no binding

Does B6 bind [8]?
Result: no binding

B7: Low Affinity BMP-2 Affibody, soluble, with hexahistidine tag and C-terminal cysteine (SEQ ID NO: 73) (designed binder)
chain: AEAKYYKEGDNAYNVIYGLPNLTRPQRLAFIVALFNDPSQSSELLSEAKKLNDSQAPKHHHHHHC
notes: E. coli-expressed; also called B4-1
What does the source list for B7?
binding result [17]: no binding (tested: 125 nM); binding result [18]: no binding (tested: 125 nM)

B8: VEGF Affibody-D28A (SEQ ID NO: 77), soluble with hexahistidine tag and C-terminal cysteine (designed binder)
chain: AEAKYNKEWYDAVFVIGSLPNLTEDQKAAFSDALVDDPSQSSELLSEAKKLNDSQAPKHHHHHHC
notes: soluble, expressed in E. coli
For B8, which Kd [19] is on record?
Its Kd is 455 nM.

And the koff [19]?
Its koff is 0.00418 s⁻¹.

What about the kon [19] of the same binder?
Its kon is 9190 M⁻¹ s⁻¹.

Does B8 bind [20]?
Result: no binding (tested: 1000 nM)

And the Kd [21]?
Its Kd is 1840 nM.
